Measurements from patent publication US20250214977A1, “STAT6 INHIBITORS AND USES THEREOF” (Kymera Therapeutics, Inc., priority 2024, published 2025).

Biological target: T1, biotinylated truncated STAT6 (123-632)-avi (Homo sapiens, UniProt P42226)
T1 sequence (P42226 123-632 limits assumed): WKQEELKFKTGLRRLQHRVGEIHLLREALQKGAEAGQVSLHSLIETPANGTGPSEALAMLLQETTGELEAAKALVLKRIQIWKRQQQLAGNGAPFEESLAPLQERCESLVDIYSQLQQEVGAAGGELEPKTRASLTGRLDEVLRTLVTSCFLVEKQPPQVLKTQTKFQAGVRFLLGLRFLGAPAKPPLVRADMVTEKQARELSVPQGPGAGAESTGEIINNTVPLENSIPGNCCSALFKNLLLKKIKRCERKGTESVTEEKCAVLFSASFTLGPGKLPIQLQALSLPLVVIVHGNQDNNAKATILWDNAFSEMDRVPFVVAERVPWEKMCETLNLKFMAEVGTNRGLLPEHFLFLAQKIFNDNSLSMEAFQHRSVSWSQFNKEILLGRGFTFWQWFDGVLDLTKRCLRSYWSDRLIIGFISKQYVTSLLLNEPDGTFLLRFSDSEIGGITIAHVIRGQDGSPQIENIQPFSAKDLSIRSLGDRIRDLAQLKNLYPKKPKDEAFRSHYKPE
Test: Homogenous Time-Resolved Fluorescence (HTRF) binding assay
Details: 0.15 nM biotinylated truncated STAT6 (123-632)-avi, 20 nM fluorescein-labeled probe

Row | Compound | IC50 (30 minutes at room temperature) | IC50 (30 minutes room temperature)
1 | COc1cc(C)ncc1-c1cc(C2=CCCN(C(=O)CCn3ccnn3)C2)c(F)c2[nH]c(C(=O)N3CCN(c4ncccc4OC)CC3)cc12 [Example I-570] | < 100 nM | –
2 | COCC1CCN(C(=O)c2cc3c(-c4ccccc4OC)cc(C4=CCCN(C(=O)CCn5ccnn5)C4)c(F)c3[nH]2)CC1 [Example I-1406] | – | < 100 nM
3 | COc1ccccc1-c1cc(C2=CCCN(C(=O)CCn3ccnn3)C2)cc2cc(C(=O)N(C)C)oc12 [Example I-1103] | < 100 nM | –
4 | CCc1ccncc1-c1cc(C2=CCCN(C(=O)CCn3ccnn3)C2)c(F)c2[nH]c(C(=O)N3CCN(c4ncccc4OC)CC3)cc12 [Example I-561] | < 100 nM | –
5 | COc1cc(F)cnc1N1CCN(C(=O)c2cc3c(-c4ccc(C)c(C#N)c4)cc(C4=CCCN(C(=O)CCn5ccnn5)C4)c(F)c3[nH]2)CC1 [Example I-648] | < 100 nM | –
6 | (1R)-3-[4-(4-ethyl-3-pyridyl)-7-fluoro-2-[4-(5-fluoro-3-methoxy-2-pyridyl)piperazine-1-carbonyl]-1H-indol-6-yl]cyclohex-3-ene-1-carboxylic acid [Example I-810] | < 100 nM | –
7 | COc1cccc(N2CCN(C(=O)c3cc4c(-c5ccncc5OC)cc(C5=CCCN(C(=O)CCn6ccnn6)C5)c(F)c4[nH]3)CC2)n1 [Example I-612] | < 100 nM | –
8 | COc1ccccc1-c1cc(C2=CCCN(C(=O)CCn3ccnn3)C2)c(F)c2[nH]c(C(=O)N3CCN(c4cccc(C(F)(F)F)n4)CC3)cc12 [Example I-937] | 100 to 1000 nM | –
9 | CN(C)C(=O)c1cc2ccc(C3=CCCN(C(=O)c4ccnnc4O)C3)cc2[nH]1 [Example I-146] | 10000 to 100000 nM | –
10 | CC(=O)N1CCC=C(c2cc(-c3cccc4c3CN(C)C4=O)c3cc(C(=O)N(C)C)[nH]c3c2F)C1 [Example I-1508] | – | < 100 nM
11 | CN(C)C(=O)c1cc2cc(C3=CCCN(C(=O)C[C@H]4Oc5ccccc5NC4=O)C3)ccc2o1 [Example I-1663] | – | 1000 to 10000 nM
12 | CCc1nc(C)ccc1-c1cc(-n2c(C)nn(C)c2=O)cc2cc(C3=CCCN(C(C)=O)C3)n(CC3CC3)c12 [Example I-1339] | – | 1000 to 10000 nM
13 | COc1cc(F)cnc1N1CCN(C(=O)c2cc3c(-c4cccc(CN5CCOCC5)c4)cc(C4=CCCN(C(=O)CCn5ccnn5)C4)c(F)c3[nH]2)CC1 [Example I-1154] | < 100 nM | –
14 | CCc1ccncc1-c1cc(C2=CCC[C@H](C(=O)O)C2)c(F)c2[nH]c(C(=O)N3CCN(c4ncc(F)cc4OC)CC3)cc12 (single isomer, unassigned) [Example I-809] | > 100000 nM | –
15 | COc1cc(F)c(F)cc1-c1cc(C2=CCCN(C(=O)CCn3ccnn3)C2)c(F)c2[nH]c(C(=O)N3CCN(c4ncccc4OC4CC4)CC3)cc12 [Example I-596] | < 100 nM | –
16 | CNc1ccc(-c2cc([C@@H]3CCCN(C(=O)CCn4ccnn4)C3)cc3[nH]c(C(=O)N(C)C)cc23)c(OC)c1 (single isomer, unassigned) [Example I-1191] | 1000 to 10000 nM | –
17 | CCc1nc(C)ccc1-c1cc(C(=O)N2Cc3cnn(CC)c3C2)cc2sc(C3=CCCN(C(=O)CCn4ccnn4)C3)cc12 [Example I-1214] | < 100 nM | –
18 | COc1cnccc1-c1cc(C2=CCCN(C(C)=O)C2)c(F)c2[nH]c(C(=O)N3CCN(c4ncccc4OC)CC3)cc12 [Example I-408] | < 100 nM | –
19 | CN(C)C(=O)c1cc2ccc(C3=CCCN(C(=O)CCn4ccnn4)C3)c(F)c2[nH]1 [Example I-304] | < 100 nM | –
20 | COc1ccccc1-c1cc(C2=CCCN(C(=O)CCn3ccnn3)C2)c(F)c2[nH]c(C(=O)N3CCN(c4ccc(Cl)cn4)CC3)cc12 [Example I-1536] | – | < 100 nM
21 | CN(C)C(=O)c1cc2ccc(C3=CCCN(C(=O)c4ccccc4C(=O)c4ccc(F)cc4)C3)cc2[nH]1 [Example I-108] | 10000 to 100000 nM | –
22 | CN(C)C(=O)c1cc2ccc(C3=CCCN(C(=O)CC(C)(C)NCc4ccccc4)C3)cc2[nH]1 [Example I-135] | 10000 to 100000 nM | –
23 | COc1ccccc1-c1cc(C2=CCCN(C(=O)CCn3ccnn3)C2)c(F)c2[nH]c(C(=O)N3CCN(c4cnc5ccncc5c4)CC3)cc12 [Example I-1440] | – | < 100 nM
24 | COc1cc(N(C)C)ccc1-c1cc(C2=CCCN(C(=O)CCn3ccnn3)C2)c(F)c2[nH]c(C(=O)N3CCN(c4ncc(Cl)cc4OC)CC3)cc12 [Example I-1039] | < 100 nM | –
25 | COc1ccccc1-c1cc(C2CCCN(C(=O)CCn3ccnn3)C2)c(F)c2[nH]c(C(=O)N3CCN(c4ncccc4OC4CC4)CC3)cc12 (stereo not drawn) [Example I-364] | < 100 nM | –
26 | CCc1cc(C)ncc1-c1cc(C2=CCCN(C(=O)CCn3cccn3)C2)c(F)c2[nH]c(C(=O)N3CCN(c4nc(C)c(F)cc4OC)CC3)cc12 [Example I-738] | < 100 nM | –
27 | COc1ccccc1-c1cc(C2=CCCN(C(=O)CCn3ccnn3)C2)c(F)c2[nH]c(C(=O)N3CCC(Oc4ccncc4)CC3)cc12 [Example I-1540] | – | < 100 nM

Row | Compound | IC50 (30 minutes at room temperature) | IC50 (30 minutes room temperature)
28 | COc1ccccc1-c1cc(C2=CCCN(C(=O)CCn3ccnn3)C2)c(F)c2[nH]c(C(=O)N3CCc4cc(C(F)(F)F)ccc4C3)cc12 [Example I-977] | < 100 nM | –
29 | COc1ccncc1-c1cc(C2=CCCN(C(=O)CCn3ccnn3)C2)c(F)c2[nH]c(C(=O)N3CCN(c4ccc(F)cc4OC)CC3)cc12 [Example I-482] | < 100 nM | –
30 | COc1ccccc1-c1cc(C2=CCCN(C(=O)CCn3ccnn3)C2)c(F)c2[nH]c(C(=O)N3CCC(NC(C)=O)CC3)cc12 [Example I-1426] | – | < 100 nM
31 | COc1cc(F)cnc1N1CCN(C(=O)c2cc3c(-c4ccc(OC5CCOCC5)cc4)cc(C4=CCCN(C(=O)CCn5ccnn5)C4)c(F)c3[nH]2)CC1 [Example I-1111] | < 100 nM | –
32 | CN(C)C(=O)c1cc2ccc(C3=CCCN(C(=O)CCS(=O)(=O)c4ccccc4)C3)cc2[nH]1 [Example I-66] | 10000 to 100000 nM | –
33 | COc1ccccc1-c1cc(C2=CCCN(C(=O)CCn3ccnn3)C2)c(F)c2[nH]c(C(=O)N3CCN(C(=O)N(C)C)CC3)cc12 [Example I-866] | < 100 nM | –
34 | CCc1ccncc1-c1cc(C2=CCCN(C(=O)CCn3ccnn3)C2)c(F)c2[nH]c(C(=O)N3CCN(c4ncccc4OC4CC4)CC3)cc12 [Example I-479] | < 100 nM | –
35 | COc1ccccc1-c1cc(C2=CCCN(C(=O)CCn3ccnn3)C2)c(F)c2[nH]c(C(=O)N3CCC(F)(CO)C3)cc12 (stereo not drawn) [Example I-1365] | – | < 100 nM
36 | CC(=O)N1CCC=C(c2cc(-c3ccccc3C(F)(F)F)c3cc(C(=O)N(C)C)[nH]c3c2F)C1 [Example I-1564] | – | 100 to 1000 nM
37 | CCn1ncc2c1CN(C(=O)c1cc(C3CC3)c3c(c1)cc(C1=CCCN(C(=O)CCn4ccnn4)C1)n3CC1CC1)C2 [Example I-768] | > 100000 nM | –
38 | CCc1nc(C)ccc1-c1cc(C(=O)N2CCN(c3ncc(F)cc3OC)CC2)cc2cc(C3=CCCN(C(=O)CCn4ccnn4)C3)sc12 [Example I-1211] | < 100 nM | –
39 | COc1ccccc1-c1cc(C2CCCN(C(=O)CCn3ccnn3)C2)c(F)c2[nH]c(C(=O)N(C)C)cc12 (stereo not drawn) [Example I-1588] | – | 1000 to 10000 nM
40 | CCc1ccncc1-c1cc(C2=CCCN(C(=O)CC(=O)O)C2)c(F)c2[nH]c(C(=O)N3CCN(c4ncc(F)cc4OC)CC3)cc12 [Example I-786] | < 100 nM | –
41 | CN(C)C(=O)c1cc2cc(C3=CCCN(C(=O)CCn4ccnn4)C3)cc(/C=C/c3ccc(Cl)cc3)c2o1 [Example I-1553] | – | 100 to 1000 nM
42 | CN(C)C(=O)c1cc2cc(C3=CCCN(C(=O)CCc4cn5ccccc5n4)C3)ccc2o1 [Example I-251] | 10000 to 100000 nM | –
43 | COc1ccccc1-c1cc(C2=CCCN(C(=O)CCn3ccnn3)C2)c(F)c2[nH]c(C(=O)N3CCN(c4ccccc4C)CC3)cc12 [Example I-421] | < 100 nM | –
44 | COc1cc(F)c(F)cc1-c1cc(C2=CCCN(C(=O)CCn3ccnn3)C2)c(F)c2[nH]c(C(=O)N3CCN(c4ncccc4OC)CC3)cc12 [Example I-559] | < 100 nM | –
45 | COc1ccccc1-c1cc(C2=CCCN(C(=O)CCn3ccnn3)C2)c(F)c2[nH]c(C(=O)N3CCCCC3)cc12 [Example I-1624] | – | < 100 nM
46 | COc1ccccc1-c1cc(C2=CCCN(C(=O)CCn3ccnn3)C2)c(F)c2[nH]c(C(=O)N3CC(Oc4cccnc4)C3)cc12 [Example I-992] | < 100 nM | –
47 | CCOc1ccncc1-c1cc(C2=CCCN(C(=O)CCn3ccnn3)C2)c(F)c2[nH]c(C(=O)N3CCN(c4ncc(C)nc4OC)CC3)cc12 [Example I-1041] | < 100 nM | –
48 | CCc1ccncc1-c1cc(C2=CCCN(C(C)=O)C2)c(F)c2[nH]c(C(=O)N3CCN(c4cc(F)cnc4OC)CC3)cc12 [Example I-699] | 10000 to 100000 nM | –
49 | CN(C)C(=O)c1cc2c(-c3ccccc3)cc(C3=CCCN(C(=O)CCn4ccnn4)C3)c(F)c2[nH]1 [Example I-1645] | – | < 100 nM
50 | CN(C)C(=O)c1cc2ccc(C3=CCCN(C(=O)CCn4ccnn4)C3)cn2n1 [Example I-298] | 10000 to 100000 nM | –
51 | COc1ccccc1-c1cc(C2=CCCN(C(=O)CCn3ccnn3)C2)c(F)c2[nH]c(C(=O)N3CCN(c4ccc5c(c4)Cc4ccccc4-5)CC3)cc12 [Example I-1458] | – | 1000 to 10000 nM
52 | COc1cccnc1-c1cc(C2=CCCN(C(=O)CCn3ccnn3)C2)c(F)c2[nH]c(C(=O)N(C)C)cc12 [Example I-1643] | – | < 100 nM
53 | COc1ccccc1-c1cc(C2=CCCN(C(=O)CCn3ccnn3)C2)c(F)c2[nH]c(C(=O)N3CCN(C(C)(C)C)CC3)cc12 [Example I-773] | < 100 nM | –
54 | CNc1ccc(-c2cc(C3=CCCN(C(=O)CCn4ccnn4)C3)cc3[nH]c(C(=O)N(C)C)cc23)c(Cl)c1 [Example I-1050] | < 100 nM | –
